# Assay results: article PMC4336329 (PLoS ONE, 2015)
# The campaign covered roughly 310,000 compounds. About 14,000 (4.5%) showed an effect of 50% or more. The effect is printed as a negative number. The list shows a part of the results.
# Molecular target: human ether-à-go-go-related gene (hERG) potassium channel (human, UniProt Q12809)
# Experiment: primary screen, population patch clamp on CHO cells stably expressing hERG
# 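Note: peak tail current of the secondary pulse compared with the same well before compound.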
# human ether-à-go-go-related gene (hERG) potassium channel, sequence (Q12809 whole entry, looked up): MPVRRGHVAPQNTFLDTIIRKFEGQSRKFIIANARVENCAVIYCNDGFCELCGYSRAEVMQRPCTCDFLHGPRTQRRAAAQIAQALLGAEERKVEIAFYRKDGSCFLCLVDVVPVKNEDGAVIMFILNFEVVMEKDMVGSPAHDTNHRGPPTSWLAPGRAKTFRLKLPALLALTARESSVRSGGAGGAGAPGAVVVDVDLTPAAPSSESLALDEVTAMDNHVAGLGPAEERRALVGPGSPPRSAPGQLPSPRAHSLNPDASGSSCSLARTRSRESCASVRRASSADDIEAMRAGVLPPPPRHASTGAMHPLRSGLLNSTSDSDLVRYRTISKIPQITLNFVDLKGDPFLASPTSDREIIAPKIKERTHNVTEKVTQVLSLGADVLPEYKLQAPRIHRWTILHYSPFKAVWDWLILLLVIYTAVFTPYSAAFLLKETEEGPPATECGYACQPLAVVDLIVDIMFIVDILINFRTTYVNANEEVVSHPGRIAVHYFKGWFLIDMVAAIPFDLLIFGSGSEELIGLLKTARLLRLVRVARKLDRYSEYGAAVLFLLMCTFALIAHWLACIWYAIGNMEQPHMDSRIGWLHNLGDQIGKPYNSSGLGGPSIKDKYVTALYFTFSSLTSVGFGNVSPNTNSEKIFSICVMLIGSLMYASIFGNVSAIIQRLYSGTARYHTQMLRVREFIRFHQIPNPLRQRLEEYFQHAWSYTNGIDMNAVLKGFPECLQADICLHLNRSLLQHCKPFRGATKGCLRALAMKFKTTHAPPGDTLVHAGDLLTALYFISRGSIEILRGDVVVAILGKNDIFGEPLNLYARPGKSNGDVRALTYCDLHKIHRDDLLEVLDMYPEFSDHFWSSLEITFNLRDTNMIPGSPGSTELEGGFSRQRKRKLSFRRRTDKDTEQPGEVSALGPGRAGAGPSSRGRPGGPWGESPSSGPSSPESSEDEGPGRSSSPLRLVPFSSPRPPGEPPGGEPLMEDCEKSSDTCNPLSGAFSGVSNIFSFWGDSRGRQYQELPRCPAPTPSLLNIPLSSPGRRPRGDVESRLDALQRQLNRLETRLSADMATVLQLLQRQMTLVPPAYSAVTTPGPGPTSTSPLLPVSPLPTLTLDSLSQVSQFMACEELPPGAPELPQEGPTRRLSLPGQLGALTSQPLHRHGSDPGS
row,Compound,"hERG current change (%, negative = inhibition) at 10uM [%]"
1,CCOC(=O)C1CCN(Cc2ccc(O)c3ncccc23)CC1,3.26
2,CC(=O)C1=C(C)NC(C)=C(C(C)=O)C1c1cn(-c2ccccc2)nc1-c1cccs1,-5.87
3,CCOC(=O)COc1ccc2c(c1)C(=O)CC1(CCN(C(C)=O)CC1)O2,-19.7
4,O=C(Nc1cccnc1)c1ccc2c(c1)C(=O)N(CC1CCCO1)C2=O (centres unmarked),5.42
5,Cc1ccc(S(=O)(=O)NC(C)C(=O)Nc2ccccc2C(=O)N2CCCC2)cc1 (centres unmarked),5.61
6,COc1ccccc1-n1cc(C(=O)c2cc(Cl)ccc2O)cc(C#N)c1=O,11.6
7,CCOc1ccc2c(c1)C(N(CCN1CCOCC1)C(=O)Nc1ccc(OC)cc1OC)CC(C)(C)O2 (centres unmarked),-51.9
8,CCOC(=O)C(=O)Nc1ccccc1C(=O)OCC,2.86
9,N#C/C(=C\c1cc2c(cc1Br)OCO2)c1ccc(C(=O)O)cc1,13.2
10,Cc1nn2c(-c3ccccc3)ccnc2c1-c1ccccc1,10.7
11,O=C(CCN1C(=O)C2C3C=CC(C3)C2C1=O)Nc1nccs1 (centres unmarked),7.84
12,Cl.ON=C1c2cc(OCCN3CCCCC3)ccc2-c2ccc(OCCN3CCCCC3)cc21,-58.1
13,Cc1cccc(C)c1OCC(=O)Nc1cccc(S(=O)(=O)N2CCCC2)c1,3.77
14,CCN1CCN(CC(=O)Nc2ccc(C)cc2C)C(=O)C1=O,11.8
15,O=C(CN1C(=O)c2ccc([N+](=O)[O-])cc2C1=O)NCC1CCCO1 (centres unmarked),7.33
16,COc1ccccc1C1CCN(C(=O)c2cccc([N+](=O)[O-])c2)CC1,-21.8
17,Cc1ccccc1N1CCN(C2CCCN(C(=O)CCC3(C)CC3)C2)CC1 (centres unmarked),-48.6
18,CCOC(=O)C(NS(=O)(=O)c1ccccc1)(C(F)(F)F)P(=O)(OCC(C)C)OCC(C)C (centres unmarked),6.91
19,O=C(NCc1ccc2c(c1)OCO2)c1ccc(CN2CCOCC2)cc1,15.3
20,CCS(=O)(=O)c1nc(NC(C)=O)n[nH]1,10
21,N#Cc1cc2c(N)c(C(=O)Nc3ccccc3)sc2nc1N,8.83
22,CC(C)CCN1CCN(Cc2ccon2)CC1CCO (centres unmarked),4.53

row,Compound,"hERG current change (%, negative = inhibition) at 10uM [%]"
1,Cc1nnc(SCCn2c(Br)nc3c2c(=O)n(C)c(=O)n3C)s1,-5.67
2,O=[N+]([O-])c1ccc(-c2cc(-c3ccc(Cl)cc3)n[nH]2)cc1,-4.49
3,Cc1cc(NC(=O)CSc2nnc(-c3cccs3)n2N)no1,20.1
4,Cc1ccccc1NC(=S)NNc1ncc(C(F)(F)F)cc1Cl,12
5,O=C(Nc1ccccc1Br)C1CCCN1S(=O)(=O)c1cccc2nsnc12 (centres unmarked),-5.19
6,Cc1cccc(N2C(=O)/C(=C/c3cccnc3)SC2=S)c1,4.09
7,COc1cc2c(=O)n(CCC(=O)NCC3CCCO3)c(=O)n(CC(=O)c3ccc(Cl)cc3)c2cc1OC (centres unmarked),-20.4
8,COC(=O)[C@@H](NC(=O)Nc1ccc(OC(F)(F)F)cc1)C(C)C,7.62
9,CCCc1nc([N+](=O)[O-])c(S(=O)(=O)c2ccccc2)n1CC(C)C,-11.6
10,CN1C[C@H](C(=O)N[C@]2(C)O[C@@]3(O)[C@@H]4CCCN4C(=O)[C@H](Cc4ccccc4)N3C2=O)CC2c3cccc4[nH]cc(c34)C[C@H]21.CS(=O)(=O)O (some centres unmarked),-8.73
11,O=C(c1cc2cc([N+](=O)[O-])ccc2oc1=O)n1cccn1,2.07
12,OC(COc1ccc2ccccc2c1Br)Cn1ccnc1 (centres unmarked),-22.5
13,Cc1ccc(NC(=O)c2cccnc2C(=O)O)nc1,23.5
14,Cc1cc(=O)[nH]c(SCCOc2ccc(OC(C)C)cc2)n1,-4.17
15,O=C(CN1CCCCC1)Nc1ccccc1NC(=O)CN1CCCCC1,3.83
16,OC(CNCCc1ccc(Cl)cc1)COc1cc(Cl)ccc1Cl (centres unmarked),-56.6
17,Cc1noc(C)c1C(=O)Nc1cccc(S(=O)(=O)N2CCCCC2)c1,-10.6
18,CC(C)COc1ccc(C(=O)N(Cc2ccco2)C2CCS(=O)(=O)C2)cc1 (centres unmarked),-20.8
19,O=C(CSc1ncccn1)N1CCc2ccccc2C1,5.19
20,Cc1ccc(NC(=O)COc2cccc(C)c2C)cc1S(=O)(=O)N1CCCCCC1,-31.3
21,CCC(C(=O)NCc1ccc(OC)cc1)n1nc(C)n2c(cc3occc32)c1=O (centres unmarked),-12.7
22,O=C1c2cccc3c(Nc4ccccc4Cl)c([N+](=O)[O-])cc(c23)C(=O)N1CCO,-22.8
